Reference: the supplement of paper PMC10126150
Sequences with one replicate were seen in a single cluster, so their values are uncertain.

Tested on: ATP
Assay: switch fluorescence ratio, 500 uM ATP over buffer (Cy3 cluster intensity, sum of 5 cycles each) (fold (ratio)); higher = stronger signal-on switching upon ATP binding; sequences stand for … in TCGTCGGCAGCGTCAGATGTGTATAAGAGACAGTTTTTTTTTTTTTTTTTTTTTTTTT…TC
Details: aptamer strand: ATP DNA aptamer (quencher-CACCTGGGGGAGTATTGCGGAGGAAGG + anchor), 100 nM annealed; ATP concentration: 500 uM; one replicate
Method in brief: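 For every switch-domain sequence, the fluorescence ratio is the mean of per-cluster values, each being summed target-cycle Cy3 intensity over summed buffer-cycle Cy3 intensity. Clusters outside 100-1000 RFU were excluded. On a modified Illumina MiSeq flow-cell, the Cy3-labelled switching-strand clusters were annealed to 100 nM quencher-labelled ATP aptamer, imaged in selection buffer and then after 15 min with 500 uM ATP at 22 °C. Five such cycles were run, with NaOH stripping and re-annealing between them.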
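Note: ATP exposure 15 min at 22 °C before imaging.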

| Sequence | switch fluorescence ratio |
| --- | --- |
| TGAATGTTTT | 0.985 |
| TTAGATGCGC | 0.971 |
| AGGTTCAGCT | 1.03 |
| GTGTCGTCTG | 1.01 |
| ATCGAAATGA | 1.03 |
| AAGTAGCAGC | 1.05 |
| CATAAAGTGG | 0.991 |
| GGTAAAACGC | 1.01 |
| CTCTCTTGGT | 1.05 |
| CTGTCGGATG | 0.981 |
| TACGACTCCC | 1.77 |
| TTACTCCCCC | 1.35 |
| TAATCACTCA | 1.03 |
| GATCGCTCC | 1.18 |
| CAAATGTCTA | 0.982 |
| ATAGCGCGG | 0.985 |
| TCGAGCAGAG | 1.29 |
| TACTCGGCGC | 1.36 |
| ACCTACAGAA | 1.2 |
| GTCCGGGGTG | 1.26 |
| CGGCAGTGTT | 1.04 |
| GATGGTAGTA | 0.992 |
| CCGCGGACCT | 1.11 |
| GGCTCTCACC | 1.06 |
| CCCATGCTGC | 1.2 |

| Sequence | switch fluorescence ratio |
| --- | --- |
| GGGCGTAAAT | 0.998 |
| AGGGCTTGTT | 1.03 |
| GTATGTCGTA | 0.954 |
| GGGTAGTGCT | 1 |
| GATACATAGG | 1.07 |
| AATGTTAGGT | 0.971 |
| CAATGTGTGG | 1.01 |
| AAATAAGGAA | 0.968 |
| TGTGGGATG | 1 |
| GGATTTATCA | 0.974 |
| TACCCAGTTT | 1.08 |
| AATATTTACA | 0.986 |
| TTGTGAGAG | 1.03 |
| ATAGCGCGT | 0.993 |
| CCTAGGATCA | 1.01 |
| GCTCCCACAT | 1.57 |
| TGTTATATAA | 1.01 |
| ATTGCGTTAG | 0.97 |
| TTCTGCATAA | 1.23 |
| ATAGCAATC | 4.15 |
| CCTGAGAAGT | 1.04 |
| TTTTTTAACC | 1.02 |
| AGTTGTGGCG | 1.11 |
| TCGGTCTCT | 1.04 |
| TCATCGAGCG | 0.951 |

| Sequence | switch fluorescence ratio |
| --- | --- |
| TGAGTCACA | 1.04 |
| CATAAGAGAT | 1.03 |
| CGCTGCCTCG | 1.03 |
| ATATTGCTGT | 1.02 |
| AAGCGGAGAC | 1.23 |
| CCCTGGGGT | 1.02 |
| CAATTCGGTG | 1 |
| CAGGTGGTAT | 1.58 |
| TGACTTT | 1.02 |
| TTGTGGCC | 0.973 |
| AGTGTTAAGC | 0.978 |
| ATGTTATAGC | 1.06 |
| TCGAACCTCT | 1.01 |
| CTTATTAAGA | 1.05 |
| TCCTCAATCT | 1.49 |
| GCTTTTTAAG | 0.972 |
| GCCTTGACCA | 0.999 |
| TATGAAAGCG | 0.995 |
| CAAAGGGTGG | 0.994 |
| AATAAGTTGA | 1 |
| TCGAACGGGA | 1.35 |
| TGACAGAAAG | 1.02 |
| TACGACGTAA | 3.15 |
| ATCGGACGAG | 0.967 |
| GGAATTTCAC | 1.09 |

| Sequence | switch fluorescence ratio |
| --- | --- |
| AGTGCACGGT | 1.01 |
| ATAATAGTTC | 1.05 |
| CTCGCTAGTG | 1.05 |
| TTTGAGTTGC | 1.02 |
| AGGCCTTCTC | 1.23 |
| CAAATAAGAA | 1.03 |
| AGATAAGTGG | 0.997 |
| TTGGATCTGG | 1.03 |
| CGCACTGGGA | 1 |
| GAGCCGAGTT | 0.996 |
| AACGGGAGCT | 0.984 |
| CTACACATGG | 1.06 |
| GAACTGTCTT | 0.967 |
| ACAGCTCTTA | 1.05 |
| GGATGTTTAA | 1.02 |
| GTTGATGCGA | 1.07 |
| TTGAGGACAT | 0.985 |
| GCAACAGTGG | 0.98 |
| AGTGCCTCGT | 0.95 |
| GGGGAATATA | 0.996 |
| CTGATCCGAG | 1.11 |
| CTGGTTAGG | 0.971 |
| CTGGTGTCGC | 0.968 |
| TGAGTGCAGA | 1.01 |
| AGATTACTCT | 0.973 |
